The results in this text go back to paper PMC6576747.

Assay in all cases: co-IP; anti-FLAG (M2) on Dynabeads, S. pombe lysate, 1 x HC buffer with 250 mM KCl and 1 mM DTT, 4 h at 4°C; Swi6 detected by Western blotting
(In western blotting, separated proteins are transferred to a membrane and probed.)

Experiment [1] addresses T1, 3FLAG-Epe1 (N-terminal tagged wild-type Epe1) (S. pombe) (UniProt O94603).
T1 sequence: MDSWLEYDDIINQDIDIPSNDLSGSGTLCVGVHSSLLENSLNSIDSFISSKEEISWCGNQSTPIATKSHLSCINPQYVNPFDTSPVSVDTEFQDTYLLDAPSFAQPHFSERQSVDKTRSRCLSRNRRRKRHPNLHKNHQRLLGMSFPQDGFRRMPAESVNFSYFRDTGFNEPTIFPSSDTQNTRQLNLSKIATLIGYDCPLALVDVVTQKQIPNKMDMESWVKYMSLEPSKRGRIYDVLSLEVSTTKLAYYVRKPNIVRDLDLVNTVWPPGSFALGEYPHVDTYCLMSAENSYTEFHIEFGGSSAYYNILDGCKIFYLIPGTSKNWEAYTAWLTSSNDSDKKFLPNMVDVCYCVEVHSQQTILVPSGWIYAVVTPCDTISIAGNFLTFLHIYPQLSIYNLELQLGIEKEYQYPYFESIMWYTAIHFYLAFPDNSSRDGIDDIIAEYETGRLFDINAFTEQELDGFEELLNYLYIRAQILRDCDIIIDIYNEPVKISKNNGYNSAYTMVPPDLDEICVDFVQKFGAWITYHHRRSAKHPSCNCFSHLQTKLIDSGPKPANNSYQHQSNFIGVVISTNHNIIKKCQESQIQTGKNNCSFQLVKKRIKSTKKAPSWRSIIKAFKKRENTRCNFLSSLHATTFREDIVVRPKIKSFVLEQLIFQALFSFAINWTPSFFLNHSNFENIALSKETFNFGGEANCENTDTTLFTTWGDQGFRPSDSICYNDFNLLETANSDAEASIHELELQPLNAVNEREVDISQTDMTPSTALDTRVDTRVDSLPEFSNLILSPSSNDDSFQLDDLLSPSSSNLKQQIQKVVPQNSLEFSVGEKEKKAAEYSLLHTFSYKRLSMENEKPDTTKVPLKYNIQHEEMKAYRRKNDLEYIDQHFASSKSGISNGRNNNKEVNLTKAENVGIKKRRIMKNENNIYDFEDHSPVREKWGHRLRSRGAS

Experiment [2] deals with T2, 3FLAG-Epe1ΔN (S. pombe) (UniProt O94603).
T2 sequence: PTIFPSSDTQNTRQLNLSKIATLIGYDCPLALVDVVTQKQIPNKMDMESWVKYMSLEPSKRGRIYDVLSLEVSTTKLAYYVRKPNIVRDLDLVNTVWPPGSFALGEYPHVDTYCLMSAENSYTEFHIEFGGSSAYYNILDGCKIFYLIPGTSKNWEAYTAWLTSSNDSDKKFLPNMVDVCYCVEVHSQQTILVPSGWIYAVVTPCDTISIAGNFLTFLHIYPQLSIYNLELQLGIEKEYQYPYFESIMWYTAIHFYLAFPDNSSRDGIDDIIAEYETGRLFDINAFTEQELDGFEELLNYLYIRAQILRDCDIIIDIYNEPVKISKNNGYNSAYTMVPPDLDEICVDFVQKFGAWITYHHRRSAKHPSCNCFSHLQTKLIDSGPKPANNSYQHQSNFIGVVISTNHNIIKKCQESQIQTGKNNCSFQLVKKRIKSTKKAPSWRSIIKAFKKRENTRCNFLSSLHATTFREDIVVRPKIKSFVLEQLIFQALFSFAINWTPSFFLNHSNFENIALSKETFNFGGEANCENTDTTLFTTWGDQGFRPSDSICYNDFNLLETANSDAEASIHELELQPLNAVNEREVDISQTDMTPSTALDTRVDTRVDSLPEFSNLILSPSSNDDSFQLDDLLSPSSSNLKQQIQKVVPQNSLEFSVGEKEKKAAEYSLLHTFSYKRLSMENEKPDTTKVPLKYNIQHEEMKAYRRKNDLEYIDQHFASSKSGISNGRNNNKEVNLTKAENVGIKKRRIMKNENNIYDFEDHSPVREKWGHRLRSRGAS

In experiment [3] the target is T3, 3FLAG-Epe1H297A (S. pombe), O94603.
T3 chain: T1 sequence with H297A
As to conditions: remark: other sources report otherwise.

Substitutions are numbered along the chain they refer to. These are yes or no findings as the source states them, for the method shown. Binding seen in cells or lysates may run through a third protein. Some results given as binding are weak or reduced against the parent protein; the word gives no strength. Tags and fused reporters may be left off the sequences shown.

B1: Swi6 (protein, UniProt P40381 1-328)
chain: MKKGGVRSYRRSSTSKRSVIDDDSEPELPSMTKEAIASHKADSGSSDNEVESDHESKSSSKKLKENAKEEEGGEEEEEDEYVVEKVLKHRMARKGGGYEYLLKWEGYDDPSDNTWSSEADCSGCKQLIEAYWNEHGGRPEPSKRKRTARPKKPEAKEPSPKSRKTDEDKHDKDSNEKIEDVNEKTIKFADKSQEEFNENGPPSGQPNGHIESDNESKSPSQKESNESEDIQIAETPSNVTPKKKPSPEVPKLPDNRELTVKQVENYDSWEDLVSSIDTIERKDDGTLEIYLTWKNGAISHHPSTITNKKCPQKMLQFYESHLTFRENE
In the case of B1, the binding result in experiment [1] and in experiment [2] was “binds” each time.

B2: Swi6, P40381 1-328 (protein)
chain: B1 chain
Take B2: in experiment [3], the binding entry was “binds”.
